The record followed here is the supplement of paper PMC12217912.

The list shows a part of the results. The full chains were built here from the parent and the listed change. Inactive controls read about 0.05.

First the molecules themselves.
B1: TEV protease; numbered along this chain (parent)
chain: MGESLFKGPRDYNPISSSICHLTNESDGHTTSLYGIGFGPFIITNKHLFRRNNGTLVVQSLHGVFKVKDTTTLQQHLVDGRDMIIIRMPKDFPPFPQKLKFREPQREERICLVTTNFQTKSMSSMVSDTSCTFPSGDGIFWKHWIQTKDGQCGSPLVSTRDGFIVGIHSASNFTNTNNYFTSVPKNFMELLTNQEAQQWVSGWRLNADSVLWGGHKVFMVKPEEPFQPVKEATQL

Variants of B1 are the subject of this test. The test is described as follows: raw area under fraction-flipped curve 0-4 h after induction (AUC4h, not background-subtracted), DNA-recorder readout of cleavage of the substrate (dimensionless); higher = more cleavage of the substrate by the protease variant. Conditions: temperature: 34 °C; time window: 0-4 h after rhamnose induction.
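Note: Bxb1 expression induced with 0.2% (w/v) L-rhamnose at OD600 near 0.5, cultures sampled hourly, flipped fraction per protease–substrate barcode pair counted by paired-end Illumina sequencing.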

As to MGESLFKGPRDYNPISSSICHLTNESDGHTTSLYGIGFGPFIITNKHNFRRNNGTLVVQSLHGVFKVKDTTTLQQHLVDGRDMIIIRMPKDFPPFPQKLKFREPQREERICLVTTNFQTKSMSSMVSDTSCTFPSGDGIFWKHWIQTKDGQCGSPLVSTRDGFIVGIHSASNFTNTNNYFTSVPKNFMELLTNQEAQQWVSGWRLNADSVLWGGHKVFMVKPEEPFQPVKEATQL [L48N], the “area with substrate ENLCFQS” value was determined as 0.0621, the “area with substrate ENLDFQS” value is 0.061, the “area with substrate ENLEFQS” value is 0.0661 and the “area with substrate ENLFFQS” value stood at 0.06. Also, the “area with substrate ENLGFQS” value was determined as 0.0673, the “area with substrate ENLHFQS” value worked out at 0.0557, the “area with substrate ENLIFQS” value was 0.055 and the “area with substrate ENLKFQS” value was 0.058. Also, the “area with substrate ENLMFQS” value is 0.07, the “area with substrate ENLNFQS” value is 0.0597, the “area with substrate ENLPFQS” value is 0.0549 and the “area with substrate ENLRFQS” value was 0.0595. Besides, the “area with substrate ENLSFQS” value was found to be 0.0602, the “area with substrate ENLVFQS” value was found to be 0.0275 and the “area with substrate ENLWFQS” value worked out at 0.0539.
In the case of MGESLFKGPRDYNPISSSICHLTNESDGHTTQLYGIGFGPFIITNKHLFRRNNGTLVVQSLHGVFKVKDTTTLQQHLVDGRDMIIIRMPKDFPPFPQKLKFREPQREERICLVTTNFQTKSMSSMVSDTSCTFPSGDGIFWKHWIQTKDGQCGSPLVSTRDGFIVGIHSASNFTNTNNYFTSVPKNFMELLTNQEAQQWVSGWRLNADSVLWGGHKVFMVKPEEPFQPVKEATQL [S32Q], the “area with substrate ENLDFQS” value is 0.0422, the “area with substrate ENLEFQS” value was determined as 0.0678, the “area with substrate ENLFFQS” value was determined as 0.088 and the “area with substrate ENLHFQS” value came out at 0.0746. Further, the “area with substrate ENLKFQS” value was 0.0941, the “area with substrate ENLLFQS” value came out at 0.0665, the “area with substrate ENLNFQS” value worked out at 0.0691 and the “area with substrate ENLPFQS” value was 0.0705. Besides, the “area with substrate ENLQFQS” value was determined as 0.112, the “area with substrate ENLRFQS” value worked out at 0.0767, the “area with substrate ENLSFQS” value turned out to be 0.0722 and the “area with substrate ENLWFQS” value is 0.0732.
As for MGESLFKGPRDYNPISSSICHLTNESDGHTTPLYGIGFGPFIITNKHLFRRNNGTLVVQSLHGVFKVKDTTTLQQHLVDGRDMIIIRMPKDFPPFPQKLKFREPQREERICLVTTNFQTKSMSSMVSDTSCTFPSGDGIFWKHWIQTKDGQCGSPLVSTRDGFIVGIHSASNFTNTNNYFTSVPKNFMELLTNQEAQQWVSGWRLNADSVLWGGHKVFMVKPEEPFQPVKEATQL [S32P], the “area with substrate ENLCFQS” value came to 0.069, the “area with substrate ENLDFQS” value came out at 0.0599, the “area with substrate ENLEFQS” value worked out at 0.049 and the “area with substrate ENLFFQS” value came out at 0.0542. For the same variant, the “area with substrate ENLGFQS” value is 0.0539, the “area with substrate ENLHFQS” value was determined as 0.0515, the “area with substrate ENLKFQS” value came to 0.0603 and the “area with substrate ENLNFQS” value came out at 0.0601. In addition, the “area with substrate ENLPFQS” value came to 0.0521, the “area with substrate ENLQFQS” value turned out to be 0.0555, the “area with substrate ENLRFQS” value turned out to be 0.0681 and the “area with substrate ENLSFQS” value worked out at 0.0583. Besides, the “area with substrate ENLVFQS” value turned out to be 0.0351 and the “area with substrate ENLWFQS” value was 0.0739.
Consider MGESLFKGPRDYNPISSSICHLTNESDGHTTSLYGIGFGPFIITNKHLFRRNNGTLVVQSLHGVFKVKDTTTLQQHLVDGRDMIIIRMPKDFPPFPQKLKFREPQREERICLVTTNFQTKSMSSMVSDTSCTFPSGDGIFWKHWIQTKMGQCGSPLVSTRDGFIVGIHSASNFTNTNNYFTSVPKNFMELLTNQEAQQWVSGWRLNADSVLWGGHKVFMVKPEEPFQPVKEATQL [D149M], for which the “area with substrate ENLDFQS” value was found to be 0.0709, the “area with substrate ENLEFQS” value was 0.0664, the “area with substrate ENLFFQS” value stood at 0.0694 and the “area with substrate ENLGFQS” value is 0.0943. Also, the “area with substrate ENLHFQS” value was 0.0555, the “area with substrate ENLKFQS” value amounted to 0.0665, the “area with substrate ENLLFQS” value is 0.0882 and the “area with substrate ENLNFQS” value came to 0.0661. The “area with substrate ENLPFQS” value was 0.0537, the “area with substrate ENLQFQS” value worked out at 0.0542, the “area with substrate ENLRFQS” value was found to be 0.0703 and the “area with substrate ENLSFQS” value was determined as 0.0751. Besides, the “area with substrate ENLWFQS” value was found to be 0.069.
As to MGESLFKGPRDYNPISSSICHLTNESDGHTTSLYGIGFGPFIITNKHLFRRNNGTPVVQSLHGVFKVKDTTTLQQHLVDGRDMIIIRMPKDFPPFPQKLKFREPQREERICLVTTNFQTKSMSSMVSDTSCTFPSGDGIFWKHWIQTKDGQCGSPLVSTRDGFIVGIHSASNFTNTNNYFTSVPKNFMELLTNQEAQQWVSGWRLNADSVLWGGHKVFMVKPEEPFQPVKEATQL [L56P], the “area with substrate ENLCFQS” value was 0.0701, the “area with substrate ENLDFQS” value amounted to 0.0501, the “area with substrate ENLEFQS” value worked out at 0.0455 and the “area with substrate ENLFFQS” value is 0.0428. For the same variant, the “area with substrate ENLHFQS” value was 0.0468, the “area with substrate ENLIFQS” value was 0.0378, the “area with substrate ENLKFQS” value turned out to be 0.0611 and the “area with substrate ENLNFQS” value is 0.0522. The “area with substrate ENLPFQS” value was determined as 0.0495, the “area with substrate ENLQFQS” value turned out to be 0.0476 and the “area with substrate ENLRFQS” value was 0.0416.
For MGESLFKGPRDYNPISSSICHLTNESDGHTTSLYGIGFGPFIITNKHLFRRNNGTLVVQSLHGVFKVKDTTTLQQHLVDGRDMIIIRMPKDFPPFPQKLKFREFQREERICLVTTNFQTKSMSSMVSDTSCTFPSGDGIFWKHWIQTKDGQCGSPLVSTRDGFIVGIHSASNFTNTNNYFTSVPKNFMELLTNQEAQQWVSGWRLNADSVLWGGHKVFMVKPEEPFQPVKEATQL [P104F], the “area with substrate ENLCFQS” value stood at 0.0466, the “area with substrate ENLDFQS” value is 0.0636, the “area with substrate ENLEFQS” value was 0.0399 and the “area with substrate ENLFFQS” value is 0.063. For the same variant, the “area with substrate ENLHFQS” value amounted to 0.0584, the “area with substrate ENLNFQS” value turned out to be 0.0576, the “area with substrate ENLPFQS” value was determined as 0.0723 and the “area with substrate ENLTFQS” value came to 0.0566.
MGESLFKGPRDYNPISSSICHLTNESDGHTTSLYGIGFGPFIITNKHLFRRNNGTLVVQSLHGVFKVKDTTTLQQHLVDGRDMIIIREPKDFPPFPQKLKFREPQREERICLVTTNFQTKSMSSMVSDTSCTFPSGDGIFWKHWIQTKDGQCGSPLVSTRDGFIVGIHSASNFTNTNNYFTSVPKNFMELLTNQEAQQWVSGWRLNADSVLWGGHKVFMVKPEEPFQPVKEATQL [M88E]: the “area with substrate ENLDFQS” value was 0.0648, the “area with substrate ENLEFQS” value was 0.0502, the “area with substrate ENLFFQS” value was found to be 0.0391 and the “area with substrate ENLHFQS” value amounted to 0.0753. Also, the “area with substrate ENLKFQS” value is 0.0534, the “area with substrate ENLNFQS” value is 0.0683, the “area with substrate ENLPFQS” value was 0.0432 and the “area with substrate ENLVFQS” value was 0.0644.
As to MGESLFKGPRDYNPISSSICHLTNESDGHTTSLYGIGFGPFIITNKHLFRRNNGTLVVQSLHGVFKVKDTTTLQQHLVDGRDMIIIRMPKDFPPFPQKLKFREPQREERICLVTTNFQTKSMSSMVSCTSCTFPSGDGIFWKHWIQTKDGQCGSPLVSTRDGFIVGIHSASNFTNTNNYFTSVPKNFMELLTNQEAQQWVSGWRLNADSVLWGGHKVFMVKPEEPFQPVKEATQL [D128C], the “area with substrate ENLDFQS” value amounted to 0.0678, the “area with substrate ENLEFQS” value turned out to be 0.0618, the “area with substrate ENLFFQS” value came out at 0.101 and the “area with substrate ENLGFQS” value was 0.0601. In addition, the “area with substrate ENLHFQS” value worked out at 0.0813, the “area with substrate ENLIFQS” value stood at 0.105, the “area with substrate ENLKFQS” value amounted to 0.0893 and the “area with substrate ENLLFQS” value was 0.0593. The “area with substrate ENLMFQS” value stood at 0.0813, the “area with substrate ENLNFQS” value was found to be 0.0846, the “area with substrate ENLPFQS” value turned out to be 0.0706 and the “area with substrate ENLQFQS” value is 0.0824. Also, the “area with substrate ENLRFQS” value was 0.0801, the “area with substrate ENLSFQS” value is 0.0874, the “area with substrate ENLTFQS” value was found to be 0.0545 and the “area with substrate ENLWFQS” value is 0.0773.
As for MGESLFKGPRDYNPISSSICHLTNESDGHTTSLYGIGFGPFIITNKHLFRRNNGTLVVQSLHGVFKVKDTTTLQQHLVDGRDMIIIRMPKDFPPFPQKLKFREPQREERICLVTTNFQTKSMSSMVSDTSCTFPSGDGIFWKHWIQTKDGQCGSPLVSTRDGFIVGIDSASNFTNTNNYFTSVPKNFMELLTNQEAQQWVSGWRLNADSVLWGGHKVFMVKPEEPFQPVKEATQL [H168D], the “area with substrate ENLCFQS” value is 0.0564, the “area with substrate ENLDFQS” value was determined as 0.0621, the “area with substrate ENLEFQS” value came to 0.0623 and the “area with substrate ENLFFQS” value stood at 0.06. Besides, the “area with substrate ENLGFQS” value was determined as 0.0584, the “area with substrate ENLHFQS” value turned out to be 0.0569, the “area with substrate ENLIFQS” value is 0.0715 and the “area with substrate ENLKFQS” value amounted to 0.0658. For the same variant, the “area with substrate ENLLFQS” value amounted to 0.0783, the “area with substrate ENLNFQS” value was found to be 0.069, the “area with substrate ENLPFQS” value came out at 0.0563 and the “area with substrate ENLQFQS” value is 0.0582. The “area with substrate ENLRFQS” value turned out to be 0.0669, the “area with substrate ENLSFQS” value is 0.0589, the “area with substrate ENLVFQS” value is 0.0545 and the “area with substrate ENLWFQS” value is 0.0583.
